Data taken from the supplement of paper PMC3334620.
In all, about 33,000 sequences were measured (“E-score (-0.5 to 0.5)”: median about -0.035, highest 2% from about 0.34 on). This is one part of the list.

Molecular target: T1, Mot3 (UniProt P54785)
T1 sequence: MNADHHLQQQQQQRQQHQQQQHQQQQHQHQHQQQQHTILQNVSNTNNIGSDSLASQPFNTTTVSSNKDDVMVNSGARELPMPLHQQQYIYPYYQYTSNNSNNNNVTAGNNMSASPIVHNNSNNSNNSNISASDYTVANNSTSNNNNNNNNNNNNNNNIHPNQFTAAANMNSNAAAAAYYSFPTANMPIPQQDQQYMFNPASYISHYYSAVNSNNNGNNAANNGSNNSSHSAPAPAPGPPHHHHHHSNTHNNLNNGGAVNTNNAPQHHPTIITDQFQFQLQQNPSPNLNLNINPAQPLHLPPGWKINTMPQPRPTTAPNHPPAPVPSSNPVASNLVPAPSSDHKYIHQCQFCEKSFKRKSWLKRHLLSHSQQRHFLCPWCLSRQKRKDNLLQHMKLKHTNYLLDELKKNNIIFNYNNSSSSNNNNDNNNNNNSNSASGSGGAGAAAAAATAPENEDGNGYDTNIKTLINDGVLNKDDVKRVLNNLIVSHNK
Experiment: PBM E-score (8-mer binding enrichment) (E-score (-0.5 to 0.5)); higher = stronger / more preferred TF binding; most listed sequences are background and not binding sites
Conditions: protein concentration: 200 nM; construct: GST-full length
Protocol: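 Universal 'all 10-mer' protein binding microarrays (Agilent AMADID 015681) probed with GST-tagged S. cerevisiae TFs (full-length or DBD) made by in vitro transcription/translation (PURExpress), about 100-200 nM. Bound TF was detected with fluorescent anti-GST. Each ungapped 8-mer (which stands for itself and its reverse complement) is scored by the PBM enrichment score (E-score), a modified Wilcoxon-Mann-Whitney statistic from -0.5 to +0.5, computed with the Universal PBM Analysis Suite. Scale: above 0.35 generally sequence-specific binding.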

Row | Sequence | PBM E-score
1 | GCGGCCAC | -0.231
2 | CTACACCC | 0.12
3 | CGGTCGCC | -0.154
4 | CTGAGGGC | -0.244
5 | ATAAATAT | 0.0384
6 | ACCACACT | -0.227
7 | TTACCCAA | -0.0266
8 | CGGTATCC | -0.225
9 | ATCCCTCC | -0.172
10 | CGTGTAAC | 0.351
11 | GACGAAGA | 0.113
12 | ATAATTGA | 0.0245
13 | TAGCTTGA | -0.219
14 | TAGTGCGA | -0.114
15 | CCCTCGCG | -0.248
16 | ACCCCTAT | -0.205
17 | AAGATGAA | -0.0005
18 | ATCAAGAA | 0.0842
19 | AGTATCCA | -0.198
20 | CGATGTGC | -0.0386
21 | CAGTGTGA | -0.0111
22 | GTCAACGA | 0.00887
23 | CGACCTGC | -0.108
24 | AGCTACTG | -0.072
25 | TGATTACA | 0.311

Row | Sequence | PBM E-score
26 | TAACGCCA | 0.0747
27 | CAACCTCC | -0.262
28 | ATGCCTAG | 0.199
29 | CTGTATGA | -0.0792
30 | ACGTAGAG | 0.223
31 | CGATCCGA | -0.316
32 | CTGCGCAA | 0.00055
33 | TAACTACA | 0.281
34 | CAAAACAC | 0.2
35 | CACCCTCC | -0.357
36 | CCAGTAGC | -0.166
37 | GATTGTTA | 0.173
38 | CCTCAGCG | -0.137
39 | AGTGGAAG | -0.119
40 | ATGAACTG | 0.0964
41 | CCCGACTC | -0.0361
42 | AAACCTTC | -0.122
43 | AACGAGCT | -0.0281
44 | GTGCGTTA | 0.16
45 | TGATACAA | 0.0668
46 | GATGGCCA | -0.226
47 | ACTCCCAC | -0.172
48 | GACAGGAA | 0.374
49 | CACCCTGA | -0.0388
50 | ACCATTCT | -0.258

Row | Sequence | PBM E-score
51 | ACGGGGCG | -0.144
52 | CATGGCGC | -0.139
53 | CACGACGC | 0.0834
54 | CGCCCGCC | -0.293
55 | ACGACTAG | -0.0453
56 | AACGCATG | 0.179
57 | ATACATCG | 0.197
58 | CGCATCCG | -0.144
59 | AGATTTGC | 0.0727
60 | ATCCATTA | -0.0227
61 | AGTACAGC | -0.113
62 | AAAACCGC | -0.144
63 | ACTCCTCA | -0.0455
64 | AGGTCGTA | 0.0905
65 | AACAAGTT | 0.126
66 | AGTGCAGA | -0.23
67 | AAACTCCA | 0.163
68 | ATACAATC | -0.0586
69 | CTCACACC | -0.25
70 | CGTGTGGC | -0.211
71 | AGTCATGG | -0.17
72 | ACTACCAG | -0.00138
73 | CCCTGCTA | -0.165
74 | GCTATGCC | -0.028
75 | TCTATCAA | 0.126

Row | Sequence | PBM E-score
76 | AATAAAGT | 0.046
77 | AGAGAATG | -0.198
78 | ACCATGCG | -0.183
79 | GGGTCGCA | -0.00482
80 | ATCGCCAA | -0.129
81 | CGCCTATC | -0.00366
82 | GCTCTTGA | -0.221
83 | ATGTCCTC | 0.034
84 | CATTGGTA | -0.196
85 | AATTGTCG | -0.115
86 | CGACGTGC | -0.0196
87 | ATCGTCTA | -0.0581
88 | CGAACTTA | -0.0308
89 | AAGGAGTA | -0.0587
90 | CCTCGAAA | 0.0518
91 | AGTCGACA | 0.0723
92 | CTTAACTC | 0.194
93 | TATGGCCA | -0.0242
94 | CGGCCAGC | -0.294
95 | AGAGCTCT | -0.183
96 | AGCCCGAG | -0.243
97 | GGCGATGA | -0.179
98 | ACCAGCAC | -0.0633
99 | CCAAGCCG | -0.251
100 | ACTTCCCT | -0.0558

Row | Sequence | PBM E-score
101 | CAGGCGTA | 0.137
102 | CCCAGAGC | -0.281
103 | GGCATACA | 0.05
104 | ACAGTCAC | 0.212
105 | TAAGTTGA | 0.0854
106 | GGTTCACA | -0.015
107 | GAGTGCCC | 0.036
108 | AAGGTATA | 0.113
109 | ATCCGCGA | -0.0116
110 | CACCCACC | -0.0829
111 | CCCCAGAA | -0.205
112 | ACCAATGG | -0.236
113 | TAAGCGCA | 0.026
114 | CGTCTGTC | -0.207
115 | CTACAAGA | 0.146
116 | AATACTCG | 0.00449
117 | CGCTTTCA | -0.00824
118 | GACATGAA | 0.274
119 | CGCGCACG | -0.0382
120 | CTTCTAAC | -0.0665
121 | AACTATAA | 0.021
122 | TAAGCCTA | 0.0259
123 | CAGCTCCG | -0.1
124 | CTCTAACC | -0.154
125 | ACTTGGCA | -0.0172

Row | Sequence | PBM E-score
126 | CGTAGCAG | -0.155
127 | GGACTTCA | -0.382
128 | ACTTCGCG | 0.0415
129 | ACTACAAG | 0.258
130 | AGCCTATG | 0.0839
131 | GTTCTCAA | 0.146
132 | CGACGCAC | 0.0929
133 | GATGGACC | -0.0623
134 | CATGACCC | -0.0801
135 | CTCAACCC | -0.227
136 | GCCACCAC | -0.245
137 | CACTTGCC | 0.144
138 | CTCAGGTC | -0.11
139 | CTGCCTAA | 0.258
140 | GGAACAGA | 0.155
141 | ATTTATGG | -0.00114
142 | ATGACCCG | -0.155
143 | GCATACGA | -0.0798
144 | CCGCAGAA | -0.0629
145 | CATGTAGC | 0.276
146 | AAGCGTGC | 0.193
147 | TCTTTGCA | 0.0106
148 | CGTTTTCC | 0.108
149 | CGAACGAA | -0.196
150 | AGCTCTCA | -0.0899

Row | Sequence | PBM E-score
151 | GTTTTGCA | 0.0564
152 | AGTTTCTG | 0.0079
153 | GAGCTTCA | -0.152
154 | ACGAATTG | 0.0886
155 | CTAAGCAA | -0.0673
156 | GTTTAGTA | 0.105
157 | AAGCTCTG | -0.152
158 | CAAGTTTA | 0.0105
159 | GCGGTTAC | -0.0321
160 | GATCGAAC | -0.09
161 | CCCAGTGC | -0.111
162 | AGTCTTTG | -0.137
163 | ACCACTCG | 0.0316
164 | CCCTCCTC | -0.372
165 | GTAGTGGA | 0.114
166 | ACCCTAGC | -0.124
167 | ATACATAC | 0.28
168 | AAATAAGT | 0.0509
169 | ATAGCAGC | -0.314
170 | AATCCGAG | -0.0353
171 | AGGAATGC | -0.0374
172 | AACAGCAC | 0.1
173 | TAACAGCA | 0.208
174 | GCTGAGGA | -0.138
175 | ACGGTTAG | -0.101

Row | Sequence | PBM E-score
176 | GCATCGGA | -0.0715
177 | CGGATTCA | -0.136
178 | ACGTACCA | 0.0585
179 | AATCTCTC | -0.0138
180 | CTTTGACC | 0.0618
181 | GGCCTTGA | -0.00182
182 | TCTTTCAA | 0.0038
183 | GGGTATTA | -0.033
184 | ACCCGAAA | -0.0369
185 | ACGAGGTC | -0.144
186 | GGCCGTAC | -0.105
187 | GCGGGTAA | -0.164
188 | AGCATTAT | 0.146
189 | CATAGAGG | 0.137
190 | CGTCATGA | -0.0741
191 | ATACCGAG | -0.0998
192 | ACTGGTAC | -0.042
193 | ATTTGCCC | -0.0699
194 | CGTGAACA | 0.108
195 | AATTAGGC | 0.165
196 | ATATGTGC | 0.0292
197 | CTCATTTC | 0.102
198 | AATCCGGC | -0.249
199 | GTCCTTAA | 0.0485
200 | CCTAATTA | 0.0788

Row | Sequence | PBM E-score
201 | CCCCCATC | -0.328
202 | TCCGTCCA | -0.282
203 | ATAGTCTA | -0.101
204 | TAGGTCAA | 0.0607
205 | CGTAATAG | 0.24
206 | CGTACCGA | -0.124
207 | CCTTTCTC | -0.0866
208 | CAGTCATC | -0.198
209 | CCACCTGC | -0.0492
210 | ATATATTC | 0.103
211 | CTGCATCC | -0.191
212 | ACAAACAA | 0.126
213 | AAACTCTT | 0.0601
214 | GACAAGGA | 0.0365
215 | CTAGTGCC | 0.225
216 | CCTTGGAA | 0.0528
217 | GTGGCGGA | -0.128
218 | AGGATACA | 0.157
219 | CCTGAGCA | 0.118
